In PubChem BioAssay AID1508642 (National Center for Advancing Translational Sciences (NCATS), 2021):
The campaign covered roughly 43,000 compounds. About 200 (0.47%) were called active. Another 12% or so got no clear call; they are omitted. Calls come from the whole dose curve; as a rule, active = well fitted cell-killing curve with a large enough effect; inconclusive = small, poorly fitted or top-dose-only effect, or effect the other way; inactive = flat fitted curve, though single readings scatter. Some of the results follow.

Experiment: Cell viability qHTS assay in S16 Pmp22-F2sN cells; note: nearly all actives have a fitted effect of over 65% in size
Conditions: S16 Pmp22-F2sN Schwann cells (luciferase reporters placed in the Pmp22 gene) viability, CellTiter-Glo, 24 h; series mostly up to 57.5 µM; activity change, negative = cytotoxicity: at the top concentration
Text: Assay Provider: Jim Inglese Ph.D. National Center for Advancing Translational Science, National Institutes of Health, Rockville, MD CMT is a heterogeneous group of neurological disorders that affect approximately 1 in 2,500 people. In particular, the most common form of CMT, CMT1A is genetically linked to the duplication of the PMP22 gene which leads to Schwann cell overexpression, thus manifesting itself as a typical case of dose-sensitive diseases. To identify small molecule compounds that can mediate the expression of PMP22 we developed a phenotypic assay screening strategy by utilizing genome editing techniques to construct Schwann cell lines containing novel reporter technology to monitor the transcriptional or translational regulation of PMP22. For high sensitivity we use a bioluminescent reporter system embedded in the 3' UTR of the PMP22 gene (S16(c9) Pmp22-F2sN) to identify compounds that inhibit gene expression. […] We can further discriminate the effect of all transcriptionally active molecules on PMP22 translation or stability with an assay that incorporates a short NLuc peptide (HiBiT) at the C-terminus of expressed PMP22 (S16(f8) PMP22-HiBiT) allowing alpha complementation and luminescence detection of membrane-associated PMP22 protein. These assays were screened against the NCATS Sytravon Library Collection. Miniaturization of these assays to 1536-well plate format for quantitative high throughput screening (qHTS) yielded rich data sets immediately from the qHTS assay (S16(c9) Pmp22-F2sN), when compared with data from a cell viability assay (Cell TiterGlo) to identify compounds that decreased the output signals through cellular toxicity to streamline the selection process of actives for subsequent characterization using the HiBiT assay (S16(f8) PMP22-HiBiT).
Cell viability assay in S16 Pmp22-F2sN cells PROTOCOL TABLE (format as described by Inglese J, Shamu CE and Guy RK. 2007) SEQUENCE No. (e.g., 1, 2, 3, etc.); […] (e.g., Cells, Incubation, Reagent, etc.); VALUE and DESCRIPTION. 1. Cells. Add 500-1,000 cells in 4 uL in growth media (DMEM High Glucose, No Phenol Red media + 10% heat-inactivated FBS + 1% Pen/Strep supplemented media) per well into Greiner 1536-well white/solid bottom high base, TC-treated plates. 2. Compounds. Library compounds and controls added at 23nL per well, transferred by Pin Tool. 3. Incubation. Incubate plates at 37C, 5% CO2, 95% RH for 24 h. 4. Reagent. Add 3uL CellTiter-Glo per well of Greiner 1536-well plates. 5. Incubation. Incubate plates at room temperature for 15 min., protect from light. 6. Detector. FLuc luminescence measured using CCD-based camera (Viewlux). NOTES (numbers refer to Sequence numbers above; values are from representative experiments) 6. Luminescence Read: Clear filter; Exposure = 1 sec, Gain = High, Speed = Slow, Binning = 2X REFERENCES: 1. Inglese J, Shamu CE and Guy RK, Reporting data from high throughput screening of small molecule libraries, Nature Chemical Biology, 2007, 3(8): 438-441. doi.org/10.1038/nchembio0807-438 2. Yasgar A, Shinn P, Jadhav A, Auld DS, Michael S, Zheng W, Austin CP, Inglese J and Simeonov A, Compound Management for Quantitative High-Throughput Screening. J. Assoc. Lab. Auto., 2008, 13: 79-89. doi: 10.1016/j.jala.2007.12.004
% is set by controls: 0 for no effect and ±100 for the full control effect; potency is the fitted concentration of half-maximal effect.

SMILES	activity change, negative = cytotoxicity	Potency
COc1ccccc1CNC(=O)c1cc2cc(S(=O)(=O)N3CCCCC3)ccc2n1C	inactive: -10.6%	–
CCOC(=O)C1CCCN(C(=O)C2CCN(S(=O)(=O)c3c(C)noc3/C=C/c3ccc(C)cc3)CC2)C1 (stereo not drawn)	inactive: 23%	–
COc1ccc(C(=O)Nc2cccc(-c3nc4cccnc4s3)c2C)c(OC)c1	inactive: 4.32%	–
CCOC(=O)c1ccccc1NC(=O)Cn1c(=O)n(Cc2ccc(C(=O)NCc3ccc4c(c3)OCO4)cc2)c(=O)c2ccccc21	inactive: -6.24%	–
CCOc1ccc(NC(=O)C2CCCN(S(=O)(=O)c3ccc(Br)s3)C2)cc1 (stereo not drawn)	inactive: -2.79%	–
Cc1ccc(-c2c(C)n3c4c(=O)n(C)c(=O)n(C)c4nc3n2CCCO)cc1	–	active: 31.6 µM
O=C(CSc1nc2c([nH]c3ccccc32)c(=O)n1-c1ccccc1)Nc1ccccc1F	inactive: 12.2%	–
O=C(CCn1cnnn1)Nc1ccccc1	inactive: 0.108%	–
COCCCNC(=O)C1CCN(c2ncnc3c2nc2n3CCCCC2)CC1	inactive: 1.16%	–
COc1ccc(-c2nc(C)c(CCNC(=O)c3ccccc3Br)s2)cc1OC	inactive: -17.9%	–
COc1cccc(Cn2cnc3c2c(=O)n(C)c(=O)n3C)c1	inactive: -28.1%	–
CC(=O)N1CCCc2cc(S(=O)(=O)N3CCC(N(C)C(C)C)CC3)ccc21	inactive: 0.282%	–
Cc1cccc(C(=O)NC(=O)Nc2ccc(-n3nc(C(F)(F)F)cc3C(F)(F)F)cc2)c1	inactive: 1.62%	–
CCOc1ccc(NC(=O)c2ccc3nc(Cc4ccccc4)oc3c2)cc1	inactive: -9.65%	–
Cc1ccc2oc(C(=O)Nc3sc4c(c3C(=O)NCc3ccccc3)CCCC4)cc(=O)c2c1	inactive: -8.68%	–
CCc1cccc(-n2c(=O)c3cccnc3n2CC(=O)Nc2ccccc2C(=O)OC)c1	inactive: 0.0522%	–
N#CC1=C2SCN(C3CCCCC3)CN2C(=O)CC1c1ccc(F)cc1 (stereo not drawn)	inactive: -3.25%	–
CCC(=O)N1CCc2cc(S(=O)(=O)NC(Cc3ccccc3)C(=O)NCc3ccc(F)cc3)ccc21 (stereo not drawn)	inactive: 7.29%	–
Cc1ccccc1NC(=O)N1CCC(CN2CCCC2)CC1	inactive: 15.8%	–
Cc1ccc(OCC(=O)OCc2cc(=O)n3c(C)csc3n2)cc1	inactive: 1.62%	–
COc1ccc(-n2nc3cc(C)c(NC(=O)c4ccc(C)cc4C)cc3n2)cc1Cl	inactive: 1.83%	–
CCOc1cc(-c2nnc(SCC(=O)NCc3ccc(C)cc3)nc2-c2ccc(OC)c(OCC)c2)ccc1OC	inactive: -13.6%	–
CC1C(=O)N2CCCc3cc(S(=O)(=O)Nc4ccc(Br)cc4F)cc1c32 (stereo not drawn)	inactive: -1.95%	–
COc1cccc(NC(=O)C2CCCN2S(=O)(=O)c2ccc3c(c2)n(C)c(=O)c(=O)n3C)c1 (stereo not drawn)	inactive: -2.27%	–

SMILES	activity change, negative = cytotoxicity	Potency
O=C(Cn1c(=O)oc2cc(S(=O)(=O)NCc3ccccc3)ccc21)N(CCO)Cc1ccccc1	inactive: -11.3%	–
CC(=O)Nc1nonc1-c1nnc(SCc2ccc(C)cc2)n1C	inactive: -4.97%	–
CCOC(=O)CNc1ncnc2c1nnn2C	inactive: -21.1%	–
CCNC(=O)c1ccc(-n2c(-c3ccccc3)cc3c2CCCCC3)cc1	inactive: 11.9%	–
Cc1c(C(=O)Nc2cccc(C(F)(F)F)c2)oc2ccc(S(=O)(=O)N(C)C3CCCCC3)cc12	inactive: -16.8%	–
COc1cccc(CNC(=O)CCc2c(C)nn(-c3ccc(N4CCOCC4)nn3)c2C)c1	inactive: -7.98%	–
COc1cccc(-c2cc(C(=O)Nc3ccc(F)cc3)[nH]n2)c1	inactive: 6.57%	–
CCCNC(=O)c1c2c(nc3ccccc13)C(=O)N(C1CCCCC1)C2	inactive: 1.46%	–
CCCc1cc(=O)[nH]c2nnc(SCC(=O)Nc3cccc(C)c3)n12	inactive: 11%	–
Cc1cccn2c(=O)c(/C=C(\C#N)c3nc4ccccc4n3C)c(Oc3ccc(Cl)cc3)nc12	inactive: -5.67%	–
COC(=O)c1c(NC(=O)COc2ccc(OC)cc2)sc2c1CCC(C)C2 (stereo not drawn)	inactive: -25.6%	–
CCCc1cc(=O)[nH]c2nnc(SCCC(C)C)n12	inactive: 2.79%	–
CCCN1C(=O)C2(c3ccccc31)c1c(oc3cc(C)c(C)cc3c1=O)C(=O)N2CCCOC (stereo not drawn)	inactive: 16%	–
CCC(=O)N1c2ccccc2CC1C(=O)NCCc1ccc(OC)cc1OC (stereo not drawn)	inactive: 21.7%	–
COc1ccc(CN2CCN(S(=O)(=O)c3ccccc3)CC2)c(OC)c1	inactive: -7.56%	–
CCCn1cc(S(=O)(=O)c2ccc(OC)cc2)c(=O)c2cc(F)c(N3CCCCCC3)cc21	inactive: -21.3%	–
CCn1cc(S(=O)(=O)c2ccc(C)cc2C)c(=O)c2cc(F)c(N3CCCC3)cc21	inactive: 2.01%	–
Cc1ccc(CSc2nnc3[nH]c(=O)cc(C)n23)cc1	inactive: -1.13%	–
CCc1ccc(NC(=O)C2CCN(S(=O)(=O)c3c(C)noc3/C=C\c3ccc(OC)cc3)CC2)cc1	inactive: 9.88%	–
COc1cc(C(=O)Nc2ccc(OCc3cc(=O)n4cccc(C)c4n3)cc2)cc(OC)c1OC	inactive: -26.1%	–
CCOc1ccc(CNC(=O)CCc2cn(CC)c3ccccc23)cc1	inactive: 15.5%	–
CC1=C(c2ccc(C)c(C)c2)S(=O)(=O)N=C1N1CCC(C(=O)N2CCCCC2)CC1	inactive: -1.47%	–
O=C(c1cnc(N2CCOCC2)c2ccccc12)N1CCN(c2ccccc2F)CC1	inactive: -6.24%	–
CN(C)c1ccc(CNC(=O)c2ccc3c(c2)N(C)C(=O)C2CCCCN32)cc1 (stereo not drawn)	inactive: 8.73%	–
